Results reported in PubChem BioAssay AID624296 (National Center for Advancing Translational Sciences (NCATS), 2012).
The campaign covered roughly 350,000 compounds. About 9,900 (2.8%) were called active. Inconclusive results, whose numbers are uncertain, are shown with a selection of clear calls. Calls follow the shape of the dose curve; as a rule, active = well fitted activation curve with a large enough effect; inconclusive = small, poorly fitted or top-dose-only effect; inactive = no such curve, though single readings can be large or run the other way. No potency is given beside an inconclusive call; the fits are too rough.
Potency is read from the fitted curve at half-maximal effect; tags tell the direction and shape of the fitted curve.

Experiment: A quantitative high throughput screen for small molecules that induce DNA re-replication in MCF 10a normal breast cells. Also: nearly all actives have a fitted effect of over 50% in size. As to activity, positive = re-replication: % of control where 0% means no effect.
Conditions: MCF 10A DNA re-replication, Hoechst nuclear intensity, 48 h; activity, positive = re-replication: at 46.1 µM (top of the series)
For `O=C(c1cc2ccccn2n1)N1CCN(Cc2ccccc2)CC1`, the “activity, positive = re-replication” value was inactive: 3.23%. With `CCOC(=O)N1CCN(c2ccncc2S(=O)(=O)N2CCCCC2)CC1` the Potency was inconclusive [activator, single point]. In the case of `COC(=O)c1ccc(-c2ncc(-c3cccc4ccccc34)o2)cc1`, the Potency is reported as inconclusive [activator, single point]. With `Cc1c(O)ccc(C(=O)COc2ccccc2F)c1O` the Potency was inconclusive [activator, single point]. In the case of `CC(C)c1nc2cc(C(=O)N3CCNC(=O)C3c3ccc(F)cc3)ccc2o1` (stereo not drawn), the “activity, positive = re-replication” value is reported as inactive: -1.82%. For `O=C(Nc1ccncc1)C1CCC(CNS(=O)(=O)c2cccc3nsnc23)CC1` (stereo not drawn), the Potency was inconclusive [activator, single point]. For `CC1(C)CC(=O)C(C=Nc2ccc(O)c(N=CC3=C(O)CC(C)(C)CC3=O)c2)=C(O)C1`, the “activity, positive = re-replication” value was inactive: -1.55%. In the case of `O=C(NCc1ccccc1Cl)C1CCN(S(=O)(=O)N2CCCCCC2)CC1`, the “activity, positive = re-replication” value is reported as inactive: -20.4%. For `Cc1[nH]c2ccc(C(=O)OC(C)C(=O)N(C)C3CCCCC3)cc2c1C` (stereo not drawn), the “activity, positive = re-replication” value was inactive: 20.1%. In the case of `CCOc1ccccc1C1c2cc3c(cc2OC(C)(N2CCCC2)C1C)OCO3` (stereo not drawn), the “activity, positive = re-replication” value is reported as inactive: -4.3%. With `COc1ccccc1N(CC(=O)Nc1cccnc1)S(=O)(=O)c1ccccc1` the Potency was inconclusive [activator, partial curve, poor fit]. In the case of `O=C(CN1C2CCCC1CC(NC(=O)C1CCCCC1)C2)Nc1ccccc1C(F)(F)F` (stereo not drawn), the “activity, positive = re-replication” value is reported as inactive: 0.37%. With `CC(=O)c1ccc(-c2ccc(-c3cc(=O)oc4c(C(C)C)ccc(C)c34)cc2)cc1` the Potency was inconclusive [activator, single point]. In the case of `COCc1nnc(NC(=O)c2ccc(S(=O)(=O)N(C)Cc3ccccc3)cc2)o1`, the “activity, positive = re-replication” value is reported as inactive: -12.4%. For `Oc1cccc(C(Nc2nccs2)c2ccc3cccnc3c2O)c1` (stereo not drawn), the Potency was active: 11.6 µM. With `CC1CCCN(CCCNC(=O)c2ccc3c(c2)N(Cc2ccc(F)cc2)C(=O)c2ccccc2S3=O)C1` (stereo not drawn) the “activity, positive = re-replication” value was inactive: 1.67%. For `O=C(CN1CCN(Cc2cccc3ccccc23)CC1)NCCc1ccccc1`, the Potency was inconclusive [activator, single point]. In the case of `CCOC(=O)c1cnc2c(OC)cccc2c1Nc1ccc2c(c1)OCCO2`, the Potency is reported as inconclusive [activator, single point]. In the case of `CCCN1CC(=O)N2C(c3cccc(OC)c3OC)c3[nH]c4ccccc4c3C[C@H]2C1=O` (stereo partly drawn), the “activity, positive = re-replication” value is reported as inactive: -15.9%. For `CCN(CC)C(=O)c1ccc(S(=O)(=O)Cc2ccc(C)cc2)c([N+](=O)[O-])c1`, the Potency was inconclusive [activator, single point]. For `CCOc1ccc2c(c1)[nH]c(=S)n2C`, the “activity, positive = re-replication” value was inactive: 4.39%. With `COCc1cc(=O)[nH]c(Nc2nc(C)c3ccccc3n2)n1` the Potency was inconclusive [activator, partial curve, poor fit]. With `CN1C(=O)C(C)(C)c2cc(S(=O)(=O)NCC3CCC(C(=O)NCc4ccc(F)cc4)CC3)ccc21` (stereo not drawn) the “activity, positive = re-replication” value was inactive: 5.5%. For `Cc1[nH]n(-c2ccccc2)c(=O)c1/C=N/NC(=O)c1cccc([N+](=O)[O-])c1`, the Potency was inconclusive [activator, partial curve]. For `CC(=O)NC(Cc1ccc(F)c(F)c1)C(=O)NC1CCN(c2c(Cc3ccccc3)c(C)nc3ncnn23)CC1` (stereo not drawn), the “activity, positive = re-replication” value was inactive: 8.34%. In the case of `O=C(Cn1c2ccccc2c(=O)c2ccccc21)Nc1ccccc1F`, the Potency is reported as inconclusive [activator, single point]. For `COc1cc(C(C#N)N2CCC(c3ccccc3)=N2)ccc1O` (stereo not drawn), the Potency was inconclusive [activator, single point]. With `COc1ccc(S(=O)(=O)N2CCCC(C(=O)NCc3cccnc3)C2)cc1` (stereo not drawn) the Potency was inconclusive [activator, single point]. For `O=C(NCCn1cc(SCc2ccccc2)c2ccccc21)c1ccccc1F`, the Potency was inconclusive [activator, single point]. In the case of `CCC1(O)CC(C(=O)OC)=NN1C(=O)c1ccccc1` (stereo not drawn), the “activity, positive = re-replication” value is reported as inactive: -0.983%. With `COC(=O)c1ccccc1NC(=O)c1cc[n+](C)cc1` the Potency was inconclusive [activator, full curve, poor fit]. For `Cc1oc(-c2ccccc2Cl)[n+]([O-])c1C`, the Potency was inconclusive [activator, partial curve, poor fit]. For `CC(Sc1nnc(-c2cccnc2)n1N)C(=O)Nc1ccc2c(c1)OCCO2` (stereo not drawn), the “activity, positive = re-replication” value was inactive: -1.59%. For `Fc1ccc(N2CCN(c3nc(CN4CCOCC4)nc4scc(-c5ccccc5)c34)CC2)cc1`, the Potency was inconclusive [activator, partial curve, poor fit]. In the case of `N=c1c(C(=O)NCc2ccccc2)cc2c(=O)n3ccccc3nc2n1Cc1ccco1`, the Potency is reported as active: 12.6 µM. With `CN(C)c1ccc(C(CNS(=O)(=O)c2ccc([N+](=O)[O-])cc2)N2CCCC2)cc1` (stereo not drawn) the “activity, positive = re-replication” value was inactive: 10.3%. In the case of `CC(C)(C)C(=O)Nc1cccc(-c2cc(-c3c(Cl)cccc3Cl)no2)c1`, the Potency is reported as inconclusive [activator, partial curve, poor fit]. With `COc1ccc(CCNC(=O)CSc2nncn2N)cc1OC` the Potency was inconclusive [activator, partial curve, poor fit]. In the case of `CC(C)c1cc(C(=O)OCC(=O)NC(=O)NCc2ccco2)c(O)c(C(C)C)c1`, the Potency is reported as active: 16.4 µM. For `Cc1ccc(N2C(=O)CS(=O)C(c3ccccc3)C2=O)cc1C` (stereo not drawn), the Potency was inconclusive [activator, single point]. With `CCOc1cc(-c2noc(CCC(=O)Nc3cccnc3)n2)ccc1OC` the “activity, positive = re-replication” value was inactive: 1.74%. In the case of `CC(=O)N1CCc2c(sc(NC(=O)CCS(=O)(=O)c3ccc(C)cc3)c2C#N)C1`, the Potency is reported as inconclusive [activator, single point]. For `Cn1c(NC(=O)c2ccco2)c(-c2ccccc2Cl)c(=O)c2ccccc21`, the Potency was inconclusive [activator, partial curve, poor fit]. With `CCN(CC)CC#CCOC(c1ccccc1)c1ccccc1` the Potency was inconclusive [activator, partial curve, poor fit]. With `O=C(Nc1ccc2c3c(cccc13)CC2)c1cccc([N+](=O)[O-])c1` the Potency was inconclusive [activator, partial curve, poor fit]. For `c1cc[n+](CCCC[n+]2ccccc2)cc1`, the Potency was inconclusive [activator, single point]. In the case of `COc1cc([C@@H]2c3cc4c(cc3[C@@H](O[C@@H]3O[C@@H]5CO[C@@H](C)O[C@H]5[C@H](O)[C@H]3O)[C@H]3COC(=O)[C@H]23)OCO4)cc(OC)c1O`, the Potency is reported as inconclusive [activator, full curve, poor fit]. With `Cc1nc(C(=O)O)cc2c1[nH]c1ccccc12` the Potency was inconclusive [activator, full curve, poor fit]. With `COc1ccc2c(c1)c(C(=O)N/N=C/c1cn(C)c3ccccc13)c(C)n2C` the Potency was inconclusive [activator, single point]. With `CC(C)(C)NS(=O)(=O)c1ccc(NC(=S)NC(=O)C2CC2)cc1` the Potency was inconclusive [activator, partial curve, poor fit]. In the case of `CC1CCCCN1S(=O)(=O)c1ccc(C(=O)Nc2nnc(C3CC3)o2)cc1` (stereo not drawn), the “activity, positive = re-replication” value is reported as inactive: 15.8%. In the case of `COc1ccc(CN(C2CC2)S(=O)(=O)c2ccccc2Br)cc1`, the Potency is reported as inconclusive [activator, single point]. In the case of `CCOC(=O)N1CCN(c2ccc(S(=O)(=O)N3CCOCC3)cn2)CC1`, the Potency is reported as inconclusive [activator, partial curve, poor fit]. With `COc1ccccc1N=NC1=C(O)CC(C)(C)CC1=O` the Potency was inconclusive [activator, full curve, poor fit]. For `NC(=O)c1ccccc1NC(=O)Nc1ccccc1Cl`, the Potency was inconclusive [activator, partial curve, poor fit]. For `O=C(O)c1cc(Cl)c(Cl)cc1C(=O)N1CCCC1`, the “activity, positive = re-replication” value was inactive: 1.63%. For `O=C(NCCCN1CCCC1)c1cc(Sc2ccc(F)cc2)nc2ccccc12`, the Potency was inconclusive [activator, partial curve, poor fit]. In the case of `Cc1cccc(N2C(=O)CC(N3CCN(c4ccccc4)CC3)C2=O)c1` (stereo not drawn), the Potency is reported as inconclusive [activator, full curve, poor fit]. For `Cc1ccc2nc(Cl)c3cc(C(=O)N(CCN(C)C)Cc4ccco4)sc3c2c1`, the Potency was active: 16.4 µM. For `Cc1ccc(CN2C(=O)C3CCCN3c3ncccc32)cc1` (stereo not drawn), the Potency was active: 23.1 µM. In the case of `CCOC(=O)Cn1c(=O)n(Cc2ccco2)c(=O)c2ccc(C(=O)NCCc3ccccc3)cc21`, the Potency is reported as inconclusive [activator, partial curve, poor fit]. With `O=C(C=Cc1ccco1)c1ccco1` the “activity, positive = re-replication” value was inactive: 5.92%. For `Cc1ccc2c(c1)CCCN2C(=O)c1cc2ccccc2oc1=O`, the Potency was inconclusive [activator, partial curve, poor fit]. In the case of `Cc1ccc(NC(=O)C(C)c2cccc(C(=O)c3ccccc3)c2)cc1O` (stereo not drawn), the Potency is reported as inconclusive [activator, single point]. In the case of `Oc1ccc(C=NC2CCCCC2)c(O)c1`, the Potency is reported as inconclusive [activator, single point]. For `Cc1cc(C)c2nc(NC(=O)c3ccc([N+](=O)[O-])o3)sc2c1`, the Potency was inconclusive [activator, single point]. With `COc1ccc(C(=O)CSc2ccc(-c3ccccc3)nn2)cc1` the “activity, positive = re-replication” value was inactive: 0.966%. For `CCOC(=O)CC(N)c1ccc2c(c1)OCO2` (stereo not drawn), the Potency was inconclusive [activator, partial curve, poor fit].
